Data on 219 sequences can be found in publication PMC10668032.

The list shows a part of the results. At the low end of the ranking the order means little.

The experiment deals with SIX1-Q177R homeodomain (UniProt Q15475). The experiment can be described thus: universal protein binding microarray. Conditions: Universal all-10-mer PBM (8x60K, AMADID 030236), 300 nM GST-tagged protein, Alexa Fluor 488 anti-GST; buffer, salt, pH and temperature not stated; high values mean tight binding; most listed sequences are background and not binding sites; double strand, one strand shown.
With ACCCGGGA, the binding signal turned out to be 0.192 E-score. As for ATGATTAG, the binding signal is -0.163 E-score.

Regarding ACAAATGC, the binding signal was -0.164 E-score. For CGAACGAC the value was -0.0347 E-score; for CTTTCTGC, -0.135 E-score. For the sequence AATTGCCG, the binding signal is -0.256 E-score. For CCGTTACA the value was 0.0479 E-score. For the sequence CACGTCGG, the binding signal stood at 0.116 E-score. Turning to AATCAACA, the binding signal amounted to 0.111 E-score. For GGTTACGA the value was 0.0649 E-score; for AACGCGAC, 0.0364 E-score; for GAAGTTTA, -0.211 E-score. For TACTTTAA the value was -0.0886 E-score; for GCACATAC, -0.0779 E-score. Take CAATGCAG: the binding signal is -0.0994 E-score. For AATCCCGT the value was 0.0379 E-score. For AGCCGTCA the value was -0.203 E-score.

With CCCCGAAG, the binding signal was found to be 0.0692 E-score.

With ACCCGGCC, the binding signal was 0.117 E-score. For ACGATTAA the value was 0.0366 E-score; for CCCCCGCA, 0.218 E-score. For GTAAAGAC the value was -0.0577 E-score. With AGGACACG, the binding signal came to 0.349 E-score. Consider AACTCTGC, for which the binding signal is -0.154 E-score. For the sequence GCGTGCCA, the binding signal is -0.177 E-score. For GGTGTTAA the value was 0.475 E-score; for AGAGTGTA, 0.424 E-score; for ATGATGCG, -0.196 E-score. For CCCTGGAA the value was 0.0711 E-score; for CGGGCGGA, 0.00552 E-score. For TACGAACA the value was 0.191 E-score. Take ATGCCTTC: the binding signal is -0.00166 E-score. As for CCACCATC, the binding signal is -0.0588 E-score.

For the sequence ACGGATCT, the binding signal worked out at 0.0527 E-score. For ACTTTTCG the value was -0.145 E-score. For CCGCGCAG the value was -0.151 E-score; for AATAGTAT, 0.0509 E-score. For ACGAGTGC the value was -0.034 E-score; for CAGGGGAG, 0.0638 E-score.

AGACTATC: the binding signal is -0.0507 E-score. For ACGTGCAG the value was 0.0977 E-score. For CGGAGACA the value was 0.0809 E-score. For GTGCCGGA the value was -0.0582 E-score; for ACTAGACA, 0.0932 E-score; for CTTGCAGC, -0.383 E-score.

In the case of ACGAATGG, the binding signal is -0.148 E-score. For ACCCCGTG the value was 0.356 E-score.

TAGACTGA: the binding signal was -0.145 E-score. As to AAATGTCC, the binding signal was -0.16 E-score. For GTTTAGAA the value was -0.0607 E-score; for TGTGTGAA, 0.187 E-score. For CCTCCGAC the value was -0.0114 E-score; for CAGGCTCA, -0.0317 E-score; for CTTGCTAA, -0.196 E-score. For ATAGAGAG the value was -0.211 E-score; for GATGGAAA, -0.0901 E-score. As to ATGGGTGA, the binding signal turned out to be 0.0911 E-score. For AACCCTAG the value was 0.104 E-score; for CCTCCTTA, 0.134 E-score.

In the case of CCAGATTA, the binding signal is -0.039 E-score. For GTCCACGA, the binding signal is -0.177 E-score. For AATGGGGG the value was 0.103 E-score; for AAGGGAGC, 0.0587 E-score; for CGAGACAG, 0.0251 E-score. As to TAAGACCA, the binding signal is -0.14 E-score. For GCTAGACC the value was -0.0586 E-score; for AGGAGACG, -0.078 E-score. For CCGAAGCC, the binding signal was -0.164 E-score. For CGAACTCA the value was -0.198 E-score. For AGCATATA the value was -0.116 E-score. CGCTTCGC: the binding signal was -0.113 E-score.

Take AGGCAAAT: the binding signal was -0.203 E-score.

Regarding GCCTGATA, the binding signal was -0.11 E-score. For ATAAACCG the value was 0.0455 E-score; for CAGCCGAA, -0.0868 E-score. For CATCCCGG the value was 0.0946 E-score. For CACATCAG the value was -0.0226 E-score. On to CATCCACA, for which the binding signal is 0.177 E-score.

On to AGGCTACG, for which the binding signal was -0.00497 E-score. Consider GCGTAGCC, for which the binding signal is -0.0748 E-score.

For GAACCTAA, the binding signal was -0.098 E-score. For ACGAAGCG the value was 8e-05 E-score. For CCACAACG the value was -0.075 E-score. For the sequence CGTTATGA, the binding signal was found to be 0.0627 E-score. For CCTGTTTC the value was -0.173 E-score. For CGGTTCGA the value was 0.0241 E-score. For CTCTTATA the value was 0.0846 E-score; for GCAAACCC, 0.0906 E-score; for AAACCCGA, 0.0673 E-score.

For ATAATAAG, the binding signal is 0.0755 E-score.

TCTGACAA: the binding signal is -0.0348 E-score. For GCCTTAGA the value was -0.0259 E-score. For AAATTCGT the value was -0.0758 E-score; for CACTATCC, 0.196 E-score. For CCAACCCG the value was 0.113 E-score. For ATCGTCAC, the binding signal was 0.147 E-score.

In the case of AGGATACC, the binding signal came to 0.337 E-score. In the case of GGTGCAAA, the binding signal was 0.138 E-score.

As to AATGGTGA, the binding signal is -0.0338 E-score. For CGGATGCC the value was 0.0748 E-score; for ACCTCGGG, 0.273 E-score; for CAGTTCAA, -0.179 E-score.

For the sequence ATTTAGTA, the binding signal was -0.0808 E-score.

In the case of CCAAAAAA, the binding signal was -0.17 E-score. For TGGAAACA the value was 0.223 E-score; for ACCTCGGC, -0.0893 E-score. For AATCGGCT the value was -0.2 E-score; for AGATTCAA, -0.304 E-score; for CAACGCAC, -0.0433 E-score. For AAACCTAT the value was -0.237 E-score; for AGCTGTTA, -0.274 E-score; for AAAACAAA, -0.0789 E-score.

For CAGCCCAC, the binding signal is -0.278 E-score. For CTATATTC the value was -0.0762 E-score.

Turning to AAGTACAG, the binding signal was -0.294 E-score. For AGGAGTGA the value was 0.0183 E-score. GAAAAATA: the binding signal is -0.104 E-score.

As for ACGTCTTC, the binding signal is -0.0447 E-score. For TATTAGGA the value was -0.125 E-score; for AACCCGCT, 0.0726 E-score. In the case of GAGCGTCA, the binding signal is -0.0393 E-score. Take ATTAAGTA: the binding signal worked out at 0.0478 E-score. For ATTCCGTG the value was 0.2 E-score; for ATATTGAC, 0.00453 E-score; for GACCCGCC, 0.18 E-score. For CGCACGCC the value was -0.0509 E-score. For CTCGGCGC the value was -0.105 E-score; for AGGCAGAC, -0.037 E-score. On to AACTTCTG, for which the binding signal is -0.283 E-score. For ATCACGGC the value was -0.171 E-score. For CATCGCCC the value was 0.0637 E-score; for CGACGCAG, -0.0203 E-score; for AGCAAATG, -0.182 E-score.

Regarding CGTGGTGC, the binding signal stood at 0.187 E-score. Turning to GGAATAAA, the binding signal was determined as 0.0126 E-score.

Take CCGATACA: the binding signal is 0.129 E-score. For CTAGGTTA the value was -0.279 E-score; for GGCAGCAC, 0.0446 E-score; for CATCTTGA, -0.145 E-score. For ACCGCTCC the value was 0.0647 E-score; for GTAACGTA, 5e-06 E-score. CGGAACTC: the binding signal was determined as 0.128 E-score. For GCAGCGGA the value was -0.131 E-score. On to CAACAGGA, for which the binding signal is -0.052 E-score.

Turning to ACCTGCGA, the binding signal was determined as 0.0341 E-score. For GACGGGAA the value was -0.201 E-score; for CCCTGTTA, 0.0394 E-score. For CCTTACCA the value was 0.0674 E-score; for ATCCGATA, 0.141 E-score; for CAAGATGA, -0.039 E-score.

As to AATTGAGA, the binding signal was -0.0914 E-score. For AATTCAAT the value was -0.0892 E-score; for CCTACGGC, -0.187 E-score. For ACACCAAA the value was 0.466 E-score; for ATGAATGA, -0.0749 E-score; for CAGGTGAA, -0.133 E-score.

Take GCTTATCA: the binding signal was determined as 0.0683 E-score. For GAGAACCC, the binding signal worked out at 0.0436 E-score. For CGGTAGCA the value was -0.0845 E-score; for AGACCTCG, 0.0395 E-score; for CAACCGGG, 0.0576 E-score. For CATTGACG the value was 0.052 E-score. Take TCGAGAGA: the binding signal is -0.192 E-score.

As for GGACTCAA, the binding signal was -0.087 E-score.

Turning to CTGGTACC, the binding signal is -0.0452 E-score. For ATCCCTCC the value was 0.0884 E-score.

Take AATTCGAC: the binding signal is -0.071 E-score. For the sequence CCGACAAC, the binding signal turned out to be 0.0273 E-score.

On to CAACCCTG, for which the binding signal came out at 0.00699 E-score. For GCTGATCC the value was 0.0867 E-score; for ATGGACTG, -0.176 E-score; for AGAGACAT, -0.194 E-score. For GCCCAATA the value was -0.0658 E-score; for GTATTTTA, -0.0685 E-score; for AATACCCG, 0.0887 E-score. For CTGAAATA the value was -0.104 E-score; for AAACGCTA, -0.172 E-score; for ACCAGAGG, 0.0268 E-score.

Turning to AGGTCTAA, the binding signal was -0.165 E-score.

Regarding TCGCTCAA, the binding signal is -0.0676 E-score. For AGTGGTGG the value was 0.126 E-score; for TCCTAACA, 0.0801 E-score.

With ACTTACAT, the binding signal is -0.188 E-score.

Regarding CGTGAATA, the binding signal is -0.0602 E-score.

On to AAGGTCTC, for which the binding signal was -0.0719 E-score.

Consider ACCTGTCA, for which the binding signal was -0.0217 E-score. For ATTATCAC the value was -0.00577 E-score; for AAGTAAAC, 0.0316 E-score. For GTGCGTGA the value was 0.163 E-score; for CTTTGACA, 0.219 E-score; for CATCTCGA, 0.0477 E-score. For CGAAAGTA the value was -0.106 E-score; for AGTTCTGG, -0.0199 E-score; for GACAAGAA, -0.036 E-score. Regarding CAAGTCGG, the binding signal is -0.0253 E-score. For TCCCATAA the value was 0.0199 E-score; for AGGGCCTG, -0.185 E-score; for GGTAAACA, 0.188 E-score. Regarding ACGAGATG, the binding signal is -0.00357 E-score.

Turning to ATGTATGG, the binding signal is -0.153 E-score.

In the case of CAAAAACG, the binding signal is -0.0326 E-score. For AGTCTTGA the value was -0.192 E-score; for CGTGCTGA, 0.0502 E-score; for GTAGTGCA, 0.105 E-score. For ACACTCCT the value was 0.391 E-score; for AGGAATAA, -0.0131 E-score. For ATTAGGAC the value was -0.242 E-score; for CATCGCTA, -0.116 E-score. Take CGTATAGA: the binding signal was -0.135 E-score. For GCTTTTCC the value was -0.232 E-score.

GTAGGTGA: the binding signal was found to be 0.0838 E-score.

In the case of CCGACAGA, the binding signal is -0.0246 E-score. ACCTGCCC: the binding signal amounted to 0.143 E-score. For CTCCATCA the value was 0.106 E-score; for CGCTACAG, -0.145 E-score; for ACGGCCAT, -0.163 E-score. For ACATCGCT the value was -0.258 E-score; for GACATATA, -0.143 E-score; for CCTTAAGG, 0.0537 E-score.
